Data taken from PubChem BioAssay AID588855 (National Center for Advancing Translational Sciences (NCATS), 2011).
In all, about 410,000 compounds went through this assay and about 5,000 (1.2%) were called active. The shares of active, inactive and inconclusive entries below differ from those in the screen. Calls come from the whole dose curve; as a rule, active = well fitted inhibition curve with a large enough effect; inconclusive = small, poorly fitted or top-dose-only effect; inactive = no such curve, though single readings can be large or run the other way. A potency beside an inconclusive call is a rough fit, not a confirmed value.

test: qHTS for Inhibitors of TGF-b; conditions: HepG2 CAGA-GFP TGF-b/SMAD3 reporter, GFP fluorescence, 18 h, TGF-beta stimulated, 500 pg/mL final; series mostly up to 46.1 µM; activity, negative = inhibition: at the top concentration; note: nearly all actives have a fitted effect of over 65% in size
Outline: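 HEPG2 CAGA-GFP cells (1000/well, DMEM with 1% FBS) were pre-incubated 2 h at 37 degrees C, given compound by pin tool, then stimulated with TGF-beta at 500 pg/mL final for 18 h before per-cell GFP fluorescence imaging.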
% is set by controls: 0 for no effect and ±100 for the full control effect; potency is the fitted concentration of half-maximal effect; tags give direction and shape of the fitted curve.

| SMILES | Potency | activity, negative = inhibition |
| --- | --- | --- |
| CCOC(=O)C1C(O)=CC(=O)CC1c1ccccc1 (stereo not drawn) | inconclusive: 4.47 µM [inhibitor, single point] | – |
| CCOc1ccc(-c2nc(N)ncc2-c2ccccc2)c(O)c1 | – | inactive: 2.24% |
| O=C(NC(=S)Nc1ccccc1N1CCOCC1)c1ccco1 | – | inactive: 10.8% |
| COc1ccc(C(CNC(=O)CNC(=O)c2cccc(F)c2)N2CCOCC2)cc1 (stereo not drawn) | – | inactive: 0.608% |
| COC(=O)c1c(NC(=O)Cc2coc3cc(C)ccc23)sc2c1CCC2 | – | inactive: 0.93% |
| CCOc1ccc(-c2cc(C)n3nc(C(N)=O)cc3n2)cc1 | inconclusive: 35.5 µM [inhibitor, single point] | – |
| CC(C)(C)NC(=O)C(c1ccc(-c2ccccc2)cc1)N(C[C@H]1CC[C@@H]([C@@H]2CC[C@H](CO)O2)O1)C(=O)c1ccc(C(C)(C)C)cc1 (stereo partly drawn) | inconclusive: 28.2 µM [inhibitor, single point] | – |
| CCOC(=O)Cc1cc(-c2ccc(F)cc2)nc2ccc3ccccc3c12 | inconclusive: 0.891 µM [inhibitor, full curve, poor fit] | – |
| COc1cc(S(=O)(=O)N(Cc2cccs2)C2CC2)ccc1-n1cnnn1 | inconclusive: 35.5 µM [inhibitor, single point] | – |
| CCc1ccc(NC(=O)CN(c2ccc(Cl)cc2)S(=O)(=O)c2ccsc2C(=O)OC)cc1 | active: 7.08 µM | – |
| CCOc1ccc(NC(=S)N(CCN2CCOCC2)Cc2ccc3c(c2)CCCN3CC)cc1 | inconclusive: 12.6 µM [inhibitor, partial curve, poor fit] | – |
| CCCSc1nnc(CNC(=O)C23CC4CC(CC(C4)C2)C3)n1Cc1ccccc1 | inconclusive: 35.5 µM [inhibitor, single point] | – |
| Cc1nc2ccccc2nc(=O)c1NNc1ccccc1 | inconclusive: 15.8 µM [inhibitor, single point] | – |
| Cc1ccc(C)c(CN2C(=O)C(O)(c3c(C)[nH]c4ccccc34)c3ccccc32)c1 (stereo not drawn) | inconclusive: 6.31 µM [inhibitor, partial curve, poor fit] | – |
| COc1ccc(OC)c(CNC(=O)c2ccc3c(c2)c(C)c(C)n3Cc2ccc(Cl)cc2)c1 | inconclusive: 0.199 µM [inhibitor, full curve, poor fit] | – |
| O=C1NCN(c2ccccc2)C12CCN(CCCC(c1ccc(F)cc1)c1ccc(F)cc1)CC2 | active: 11.2 µM | – |
| O=C(C1CCCN(S(=O)(=O)c2cccc3nsnc23)C1)N1CCN(c2ccccc2)CC1 (stereo not drawn) | inconclusive: 11.2 µM [inhibitor, partial curve] | – |
| Cc1ccc(S(=O)(=O)Nc2cccc(-c3ccc(N4CCCC4)nn3)c2)c(C)c1 | inconclusive: 11.2 µM [inhibitor, single point] | – |
